The values below come from publication PMC6919601, “Identification of Plasmodium dipeptidyl aminopeptidase allosteric inhibitors by high throughput screening” (PLoS ONE, 2019).

About 230 (0.21%) of roughly 110,000 compounds showed an effect of 50% or more. The list shows a part of the results.
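Further: 30 min substrate incubation versus DMSO and 10 µM JCP410 controls.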

In this assay the target is DPAP1 (Plasmodium falciparum, UniProt Q8IIJ9). Briefly: primary screen, percent inhibition; read by cleavage of a fluorogenic dipeptide substrate; higher = more effect of the substance. Further details: species or system P. falciparum D10 trophozoite lysates; single well.
Sequence of DPAP1 (Q8IIJ9 whole entry, looked up): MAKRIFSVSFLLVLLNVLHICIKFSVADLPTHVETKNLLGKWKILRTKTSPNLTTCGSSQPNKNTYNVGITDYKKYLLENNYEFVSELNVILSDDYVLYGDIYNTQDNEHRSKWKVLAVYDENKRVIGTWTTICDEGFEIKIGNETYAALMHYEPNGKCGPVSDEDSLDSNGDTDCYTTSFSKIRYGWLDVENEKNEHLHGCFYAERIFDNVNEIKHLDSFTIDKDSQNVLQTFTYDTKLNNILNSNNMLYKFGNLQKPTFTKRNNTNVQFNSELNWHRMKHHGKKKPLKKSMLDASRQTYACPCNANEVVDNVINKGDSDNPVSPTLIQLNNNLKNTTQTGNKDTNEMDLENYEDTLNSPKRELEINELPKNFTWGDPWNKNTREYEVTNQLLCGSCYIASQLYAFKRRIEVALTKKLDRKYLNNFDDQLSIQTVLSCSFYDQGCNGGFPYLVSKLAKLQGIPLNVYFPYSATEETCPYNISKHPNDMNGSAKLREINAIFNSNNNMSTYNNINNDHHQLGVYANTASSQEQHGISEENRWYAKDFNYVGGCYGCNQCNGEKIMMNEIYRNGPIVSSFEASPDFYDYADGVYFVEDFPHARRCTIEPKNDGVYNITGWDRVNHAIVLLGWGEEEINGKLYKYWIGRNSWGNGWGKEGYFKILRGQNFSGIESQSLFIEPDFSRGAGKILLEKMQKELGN
Regarding `CCOC(=O)c1s/c(=N\C(=O)c2ccc(S(=O)(=O)N3CCOCC3)cc2)n(C)c1C`, the “% Inhibition @ 10 uM” value was 3.06%. `CCOc1ccccc1N1CCN(Cc2nnc(S)n2CC)CC1`: the “% Inhibition @ 10 uM” value is given as 1.88%. With `O=C(NCCC1=CCCCC1)c1csc2ccccc12` the figure was -3.83%; with `Cn1c(=O)[nH]c(=O)c2c1nc(N1CCOCC1)n2CCSc1nc2ccccc2[nH]1`, 0.275%. Next, `CCOc1ccccc1NC(=O)C(C)Oc1ccccc1C` (centres unmarked): 4.11%. As for `Cc1cccc(Cc2c(C)nc3c(C(=O)NCCc4ccccc4)cnn3c2C)c1`, the “% Inhibition @ 10 uM” value is given as -16.3%. `COc1ccc(CNc2nc(-c3cccnc3)nn2C(=O)c2ccc(C(C)(C)C)cc2)cc1`: the “% Inhibition @ 10 uM” value was -2.92%.

In the case of `COc1ccccc1Nc1nc(-c2ccc3ccccc3c2)cs1`, the “% Inhibition @ 10 uM” value is recorded as 4.38%. On to `CCc1ccc(CNC(=O)c2cc3ccc4cccnc4c3[nH]2)cc1`, for which the “% Inhibition @ 10 uM” value worked out at 5.23%.

For the compound `O=C(CN1C(=O)c2cccc3cccc1c23)NCc1ccco1`, the “% Inhibition @ 10 uM” value is recorded as -6.02%. With `O=C(NCC1CCCO1)c1ccc(CS(=O)c2ccc(Br)cc2)o1` (centres unmarked) the figure was -3.32%. With `COc1cc(C2NC(C(=O)O)CS2)ccc1OCC(N)=O` (centres unmarked) the figure was -2.19%; with `CN(C)CC(=O)N1c2ccccc2CCc2ccc(NC(N)=O)cc21`, 0.937%. As to `CC(C)c1ccc(NC(=O)Nc2cccc(Cl)c2)cc1`, the “% Inhibition @ 10 uM” value is given as -0.261%.

Regarding `Cc1cc(C(F)(F)F)c(C#N)c(SCc2ccc(Cl)nc2)n1`, the “% Inhibition @ 10 uM” value worked out at 3.19%. Next, `COc1cccc(C2c3c(oc4ccc(F)cc4c3=O)C(=O)N2c2nc(C)c(C)s2)c1` (centres unmarked): -1.33%. Take `CN(C)CCOC(=O)NC12CC3CC(CC(C3)C1)C2`: the “% Inhibition @ 10 uM” value is 2.58%. For the compound `Cc1ccc(C(=O)Nc2c(C(=O)Nc3cccnc3)cnn2-c2ccccc2)cc1`, the “% Inhibition @ 10 uM” value was determined as 3.86%. As for `COc1ccc(CN2CCN(Cc3ccc(Cl)cc3)CC2)cc1OC`, the “% Inhibition @ 10 uM” value was 1.92%.

Regarding `O=C1CC(c2ccccc2F)c2ccc3ccccc3c2N1` (centres unmarked), the “% Inhibition @ 10 uM” value is -0.436%. `Cc1cc(CN(C)Cc2ccccc2)cs1`: the “% Inhibition @ 10 uM” value is recorded as -1.57%. In the case of `O=c1cc(NCc2ccc(Cl)cc2)c2ccccc2o1`, the “% Inhibition @ 10 uM” value is recorded as -3.72%.

On to `Cc1ccc(-c2cc(C(=O)NCCN3CCOCC3)c3cc(Br)ccc3n2)cc1`, for which the “% Inhibition @ 10 uM” value amounted to 4.3%. As to `CCN(CC)C1=CC(=O)OC12CCCCC2`, the “% Inhibition @ 10 uM” value turned out to be 1.44%. In the case of `Cc1ccc2c(CNCc3ccco3)c(C(=O)O)n(Cc3ccc(F)cc3)c2c1`, the “% Inhibition @ 10 uM” value turned out to be 1.8%. `Cc1cccc(Cc2c(C)nc3c(C(=O)NCc4ccco4)cnn3c2C)c1`: the “% Inhibition @ 10 uM” value is given as -4.06%. Turning to `Cc1ccc(C2=NS(=O)(=O)N(C)C(C(=O)Nc3cnn(Cc4ccccc4C)c3)=C2)cc1`, the “% Inhibition @ 10 uM” value came to 3.92%. With `OC1CCCN(Cc2ccc(F)cc2)C1` (centres unmarked) the figure was -2.7%.

For `O=C(NC1CCS(=O)(=O)C1)/C(NC(=O)c1ccccc1)=C(/Sc1ccccn1)c1ccccc1` (centres unmarked), the “% Inhibition @ 10 uM” value is -5.63%.

On to `CCN(CC)c1ccc(Nc2nc(-c3ccccc3)cs2)cc1`, for which the “% Inhibition @ 10 uM” value is recorded as -2.48%. With `COc1ccc(CNC(=O)c2oc3cc4sc(N(C)C)nc4cc3c2C)cc1`, the “% Inhibition @ 10 uM” value stood at 6.41%. `O=C(C1=C(O)C(=O)N(CC2CCCO2)C1c1cccs1)c1ccc2c(c1)OCCO2` (centres unmarked): the “% Inhibition @ 10 uM” value is -4.14%.

For the compound `COc1cc2oc(=O)cc(C)c2cc1OCC(O)CN1CCOCC1` (centres unmarked), the “% Inhibition @ 10 uM” value is listed as 5.53%.

For the compound `C=C1c2ccc(OC)cc2NC(=O)N1c1ccccc1`, the “% Inhibition @ 10 uM” value is 3.9%. Turning to `CC1CCN(S(=O)(=O)N2CCCC(C(=O)NCc3ccc4c(c3)OCO4)C2)CC1` (centres unmarked), the “% Inhibition @ 10 uM” value was -3.12%. With `Cn1cc(S(=O)(=O)N2CCOCC2)cc1C(=O)NCCCc1ccccc1` the figure was -5.01%. `COc1cc(C(=O)N(Cc2ccc(C(C)(C)C)cc2)Cc2ccco2)cc(OC)c1OC`: the “% Inhibition @ 10 uM” value is reported as 3.88%. With `CCCC[C@@H](/C=C/S(=O)(=O)c1ccccc1)NC(=O)[C@H](Cc1ccccc1)NC(=O)N1CCC(N2CCOCC2)CC1` the figure was 0.173%; with `Nc1ccc(C(=O)/C=C/c2ccco2)cc1`, -1.66%; with `O=C(NCc1ccc(F)cc1)c1cc2n(n1)C(C(F)(F)F)CC(c1ccccc1)N2` (centres unmarked), 1.03%.

Take `CCOC(=O)c1cnc2nc(-c3ccncc3)nn2c1N`: the “% Inhibition @ 10 uM” value was 0.895%. In the case of `Cc1ccc2nc3c(O)n(CC(=O)Nc4cccnc4)ncc-3c2c1`, the “% Inhibition @ 10 uM” value was -2.52%. With `Cc1cccc(NC(=O)CN(CCc2ccccc2)S(C)(=O)=O)c1C` the figure was -4.39%; with `CC1=C(C#N)C(c2ccc(OCc3ccccc3)cc2)C2=C(O)CCCC2=N1` (centres unmarked), 0.736%; with `O=C1CC(N2CCN(c3ccccc3F)CC2)C(=O)N1c1cccc(C(F)(F)F)c1` (centres unmarked), 0.528%.

Take `O=C1Nc2ccc(S(=O)(=O)N3CCCC3C(=O)O)c3cccc1c23` (centres unmarked): the “% Inhibition @ 10 uM” value is 1.1%.

`CCC(C)c1ccc(NC(=O)c2ccncc2)cc1` (centres unmarked): the “% Inhibition @ 10 uM” value is -3.24%. With `Cc1cc(C)cc(CC(C(=O)Nc2ccccc2)C(C)C(=O)O)c1` (centres unmarked) the figure was 0.635%.

Regarding `CC1=C(C(=O)OCc2ccccc2)C(c2coc3ccc(Cl)cc3c2=O)C2=C(O)CCCC2=N1` (centres unmarked), the “% Inhibition @ 10 uM” value is on record as -5.03%. Turning to `Cc1cc(SCC(=O)O)n2nc(C)c(-c3ccc(Cl)cc3)c2n1`, the “% Inhibition @ 10 uM” value is reported as -3.53%. Regarding `O=C1CCCC2=C1C(c1cccnc1)Nc1ccc3ncccc3c12` (centres unmarked), the “% Inhibition @ 10 uM” value turned out to be 4.12%. Consider `Cc1ccc(S(=O)(=O)N(CC(=O)NCc2cccnc2)c2ccccc2)cc1`, for which the “% Inhibition @ 10 uM” value was -6.77%. `O=C(CCCOc1ccc(Br)cc1)Nc1ncc(Cc2ccc(F)cc2)s1`: the “% Inhibition @ 10 uM” value is on record as 0.685%. Consider `Cc1oc2c(c1C(=O)NCCc1ccccc1)C(=O)c1ccccc1C2=O`, for which the “% Inhibition @ 10 uM” value is -5.41%.

Take `Cc1cc(C)nc(Sc2ncnc3sc(C)c(C)c23)n1`: the “% Inhibition @ 10 uM” value is reported as 4.83%.

As to `CCOC(=O)N1CCC(NC(=O)CSc2cc(C)nc3c(-c4ccccc4OC)c(C)nn23)CC1`, the “% Inhibition @ 10 uM” value is recorded as 3.29%.

`CCn1ncc(Br)c1C(=O)Nc1ccc(C(C)C)cc1`: the “% Inhibition @ 10 uM” value was found to be 2.92%. Consider `COc1cccc(-c2cc(C(=O)N3CCN(c4ncccn4)CC3)c3ccccc3n2)c1`, for which the “% Inhibition @ 10 uM” value stood at 2.76%. On to `CN1C(=O)c2ccccc2C(C(=O)Nc2cccnc2Cl)C1c1cccs1` (centres unmarked), for which the “% Inhibition @ 10 uM” value is on record as -7.02%. Turning to `CCOC(=O)c1c(C)c(C(=O)NCc2ccccc2)c(C)n1CC`, the “% Inhibition @ 10 uM” value is recorded as -1.66%. With `Cc1cccc(-n2cc(-c3ccccc3)c3c(N4CC(C)OC(C)C4)ncnc32)c1` (centres unmarked) the figure was 0.258%; with `Cc1cc(OCC(=O)Nc2ccc(S(=O)(=O)N3CCCCCC3)cc2)ccc1Br`, 1.83%.

Turning to `CC(C)C(=O)Nc1ccc(C(=O)c2ccccc2)cc1`, the “% Inhibition @ 10 uM” value is -0.884%.

With `C=CCOc1ccc(C(=O)Nc2ccccn2)cc1`, the “% Inhibition @ 10 uM” value is -0.357%.

In the case of `Cc1sc2ncn(CC(=O)NC3CCCC(C)C3C)c(=O)c2c1S(=O)(=O)N1CCC(C)CC1` (centres unmarked), the “% Inhibition @ 10 uM” value is recorded as -4.67%. Consider `Cc1ccc(S(=O)(=O)N(CC(=O)NCc2ccccn2)c2cc(Cl)ccc2C)cc1`, for which the “% Inhibition @ 10 uM” value is reported as -11.1%. With `CCOC(=O)c1c(O)oc2ccccc2c1=O`, the “% Inhibition @ 10 uM” value is reported as 3.22%. With `O=c1c2cccnc2n(Cc2ccc(Cl)cc2)c(=O)n1C1CCCCC1`, the “% Inhibition @ 10 uM” value is 3.32%. `Cc1nnc(N2CCCC(C(=O)NC(C)C)C2)c2nn(-c3ccccc3)c(C)c12` (centres unmarked): the “% Inhibition @ 10 uM” value is recorded as 1.74%. With `CS(=O)(=O)c1nc(S(=O)(=O)c2ccc(Cl)cc2)c(NCc2ccc3c(c2)OCO3)s1` the figure was -0.522%; with `CCN1C(=O)N/C(=C/c2ccc(-c3cc(C(=O)O)ccc3Cl)o2)C1=O`, -5%; with `Cc1ccc(CNC(=O)CSc2cn(CC(=O)N3CCC(C)CC3)c3ccccc23)cc1`, -3.73%.

In the case of `N#Cc1cc2c(nc1SCN1C(=O)c3ccccc3C1=O)CCC2`, the “% Inhibition @ 10 uM” value is -5.48%. With `COc1ccc(CCC(=O)Nc2sc3c(c2C(N)=O)CCC(C)C3)cc1` (centres unmarked), the “% Inhibition @ 10 uM” value is recorded as -4.21%. For `CC1CC2=Nc3nc4ccccc4n3C(c3cccs3)C2=C(O)C1` (centres unmarked), the “% Inhibition @ 10 uM” value is -7.35%. Next, `O=C1C2C3CCC(C3)C2C(=O)N1C1CCCCC1` (centres unmarked): -6.62%.

For the compound `CC12CN3CC(C)(CN(C1)C3C(O)C(O)C(O)C(O)CO)C2=O` (centres unmarked), the “% Inhibition @ 10 uM” value amounted to 0.962%. On to `Cc1ccccc1NC(=O)c1cc(Cl)c(Cl)cc1C(=O)O`, for which the “% Inhibition @ 10 uM” value is recorded as 1.52%.

In the case of `O=c1cc(OCc2ccccc2)c2ccccc2o1`, the “% Inhibition @ 10 uM” value was found to be 4.12%. With `Cc1c2cnn(CC(=O)NC3CCN(Cc4ccccc4)CC3)c(=O)c2c(C)n1Cc1ccccc1` the figure was -0.447%; with `COc1ccc(C(CC(=O)Nc2nnc(C)s2)c2ccccc2)cc1` (centres unmarked), -4.91%; with `OCC(O)CSc1nc2ccccc2[nH]1` (centres unmarked), -1.59%. As for `CN1CCN(C(=O)c2cc(-c3ccc4c(c3)OCO4)on2)CC1`, the “% Inhibition @ 10 uM” value was 0.0221%.

With `Brc1ccc(-c2cn3nc(C4CCCCC4)sc3n2)cc1`, the “% Inhibition @ 10 uM” value is -2.71%. As for `NS(=O)(=O)c1cccc(S(=O)(=O)c2cccc(S(N)(=O)=O)c2)c1`, the “% Inhibition @ 10 uM” value is 2.41%. As to `COc1cc(C(=O)/N=C2\C[N+](C(C)Cc3ccccc3)=NO2)cc(OC)c1OC` (centres unmarked), the “% Inhibition @ 10 uM” value is recorded as -2.87%.

Turning to `Cc1c(CN(C)Cc2ccccc2)c(=O)n(-c2ccccc2)n1C`, the “% Inhibition @ 10 uM” value was -0.603%. In the case of `CC(=O)N1CCc2nc(SCC(=O)NCc3ccc(Cl)cc3)c(C#N)c(C(F)(F)F)c2C1`, the “% Inhibition @ 10 uM” value was 5.54%. As for `CCC(C)NC(=O)CS(=O)(=O)Cc1nc(-c2ccc(OC)cc2)oc1C` (centres unmarked), the “% Inhibition @ 10 uM” value is given as -9.55%. Regarding `CN(C)c1ccc(/C=C2\CCC/C(=C\c3cccs3)C2=O)cc1`, the “% Inhibition @ 10 uM” value was 3.96%. With `O=C(CN(Cc1ccccc1)S(=O)(=O)c1cc(Cl)ccc1Cl)NC1CCCC1` the figure was -3.5%. With `CC(C)CCNC(=O)c1ccc2c(c1)ncn2C1CCCC1` the figure was -6.88%; with `CCCc1[nH]nc2c1C(c1ccccc1OC)C(C#N)=C(N)O2` (centres unmarked), -5.34%; with `CC1=C(C#N)C(c2ccc(Cl)c(Cl)c2)C2=C(O)CCCC2=N1` (centres unmarked), 1.25%. `Cc1cccc(C(=O)Nc2ccc(S(=O)(=O)N3CCOCC3)cc2C)c1`: the “% Inhibition @ 10 uM” value turned out to be 3.48%. Regarding `Cc1cncn1CCc1nc2c3ccccc3nc(S)n2n1`, the “% Inhibition @ 10 uM” value is on record as 0.4%. Turning to `CC(=O)Nc1ccc(CN2CCC(Cc3ccccc3)CC2)cc1`, the “% Inhibition @ 10 uM” value was -1.18%. `O=C(Nc1cccc(Br)c1)c1cc2ccccc2oc1=O`: the “% Inhibition @ 10 uM” value is -7.42%.
